Measured values reported in PubChem BioAssay AID1745853 (National Center for Advancing Translational Sciences (NCATS), 2022).
The list shows a part of the results. The main result of the screen is listed elsewhere. These columns were measured beside it and carry no call.

Experiments:
Test in all cases: Primary Screen for Target Class Profiling of Small Molecule Inhibitors of Methyltransferases
[1] = target: Glycine N-methyltransferase (Homo sapiens) (UniProt Q14749); conditions: purified enzyme, MTase-Glo SAH luminescence; measured here: GNMT inhibition; at 40 µM; stronger effect = lower value
Method in brief: (§1)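 Each enzyme was reacted with SAM and its substrate, with compounds tested once at 40 uM; SAH formed was read by MTase-Glo luminescence.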

[2] = target: Guanidinoacetate N-methyltransferase (Homo sapiens) (UniProt Q14353); conditions: purified enzyme, MTase-Glo SAH luminescence; measured here: GAMT inhibition; at 40 µM; stronger effect = lower value
Method in brief: as §1

[3] = target: Histamine N-methyltransferase (Homo sapiens) (UniProt P50135); conditions: purified enzyme, MTase-Glo SAH luminescence; measured here: HNMT inhibition; at 40 µM; stronger effect = lower value
Method in brief: as §1

[4] = target: Nicotinamide N-methyltransferase (Homo sapiens) (UniProt P40261); conditions: purified enzyme, MTase-Glo SAH luminescence; measured here: NNMT inhibition; at 40 µM; stronger effect = lower value
Method in brief: as §1

[5] = target: Phenylethanolamine N-methyltransferase (Homo sapiens) (UniProt P11086); conditions: purified enzyme, MTase-Glo SAH luminescence; measured here: PNMT inhibition; at 40 µM; stronger effect = lower value
Method in brief: as §1
% is scaled to controls: 0 for no effect and ±100 for the full control effect.

O=C1CCC2(CCN1)CCN(S(=O)(=O)c1cccnc1)CC2
activity change, negative = inhibition [1]: 0.516%
activity change, negative = inhibition [2]: 1.28%
activity change, negative = inhibition [3]: 2.66%
activity change, negative = inhibition [4]: 0.155%
activity change, negative = inhibition [5]: 0.769%

COc1ccc(CNc2nc(N(CCO)CCO)nc3c2ncn3C(C)C)cc1
activity change, negative = inhibition [1]: -12.1%
activity change, negative = inhibition [2]: -6.84%
activity change, negative = inhibition [3]: 1.25%
activity change, negative = inhibition [4]: -21.4%
activity change, negative = inhibition [5]: -2.41%

CC(C)c1cc2n(n1)CC(C)(C(=O)NC1CCCCCC1)N(Cc1cccc(Cl)c1)C2=O (stereo not given)
activity change, negative = inhibition [1]: 4.54%
activity change, negative = inhibition [2]: 1.87%
activity change, negative = inhibition [3]: 7.88%
activity change, negative = inhibition [4]: 3.62%
activity change, negative = inhibition [5]: 2.66%

CCNC(=O)C(CC)n1ccc2cc(S(=O)(=O)N3CCCCC3)ccc21 (stereo not given)
activity change, negative = inhibition [1]: 5.58%
activity change, negative = inhibition [2]: 2.67%
activity change, negative = inhibition [3]: 1.43%
activity change, negative = inhibition [4]: 7.61%
activity change, negative = inhibition [5]: 4.06%

O=C(NC[C@H]1OC[C@@H](NCc2ccccc2O)[C@@H]1O)c1ccc(F)cc1
activity change, negative = inhibition [1]: -1.1%
activity change, negative = inhibition [2]: -1.73%
activity change, negative = inhibition [3]: 1.08%
activity change, negative = inhibition [4]: -2.82%
activity change, negative = inhibition [5]: 5.18%

O=C(OCC12OC1C=CC(OC(=O)c1ccccc1)C2O)c1ccccc1 (stereo not given)
activity change, negative = inhibition [1]: -6.28%
activity change, negative = inhibition [2]: -4.31%
activity change, negative = inhibition [3]: 4.04%
activity change, negative = inhibition [4]: -15.6%
activity change, negative = inhibition [5]: -6.96%

Cc1ccc(NC(=O)Cn2c(=O)oc3cc(S(=O)(=O)N4CC(C)CC(C)C4)ccc32)cc1C (stereo not given)
activity change, negative = inhibition [1]: -5.61%
activity change, negative = inhibition [2]: -0.591%
activity change, negative = inhibition [3]: -3.52%
activity change, negative = inhibition [4]: -6.88%
activity change, negative = inhibition [5]: -24.4%

CC(C)CN(Cc1cccnc1)C1CN(S(=O)(=O)Cc2ccccc2F)C1
activity change, negative = inhibition [1]: -2.72%
activity change, negative = inhibition [2]: 1.41%
activity change, negative = inhibition [3]: 2.48%
activity change, negative = inhibition [4]: -5.56%
activity change, negative = inhibition [5]: -1.45%

CC(C)c1ccccc1OC(=O)NCCc1ccc2ccccc2c1
activity change, negative = inhibition [1]: -0.408%
activity change, negative = inhibition [2]: -14.1%
activity change, negative = inhibition [3]: 4.36%
activity change, negative = inhibition [4]: -17.3%
activity change, negative = inhibition [5]: -5.08%

O=C(CCc1nnc2n(Cc3ccc(Cl)cc3)c(=O)c3ccccc3n12)N1CCC(N2CCCCC2)CC1
activity change, negative = inhibition [1]: -16.9%
activity change, negative = inhibition [2]: 2.04%
activity change, negative = inhibition [3]: -77.3%
activity change, negative = inhibition [4]: -3.04%
activity change, negative = inhibition [5]: -9.14%

O=C1NC(=NC2CCCCC2)C2(CCN(CC3CCCCC3)CC2)N1c1cc(F)cc(F)c1
activity change, negative = inhibition [1]: -2.53%
activity change, negative = inhibition [2]: -1.73%
activity change, negative = inhibition [3]: 0.703%
activity change, negative = inhibition [4]: -2.57%
activity change, negative = inhibition [5]: -9.21%

CC1=CC(=O)[C@@]2(C(C)C)C[C@@H]12
activity change, negative = inhibition [1]: -14.5%
activity change, negative = inhibition [2]: -32.9%
activity change, negative = inhibition [3]: -17.3%
activity change, negative = inhibition [4]: -60.4%
activity change, negative = inhibition [5]: -21.7%

Cc1ccc(NC(=O)Cn2nc3n(CCC(C)C)c(=O)c4ccccc4n3c2=O)c(C)c1
activity change, negative = inhibition [1]: 6.21%
activity change, negative = inhibition [2]: 5.37%
activity change, negative = inhibition [3]: 9.6%
activity change, negative = inhibition [4]: 4.32%
activity change, negative = inhibition [5]: -1.88%
